# Test results from publication PMC4336329 (PLoS ONE, 2015).
# Hit rate of the full screen: of about 310,000 compounds, about 2,200 (0.71%) showed an effect of 50% or more. The effect is printed as a negative number. The list shows a part of the results.
# Target: human ether-à-go-go-related gene (hERG) potassium channel (human, UniProt Q12809)
# Assay: primary screen, population patch clamp on CHO cells stably expressing hERG
# Sequence of human ether-à-go-go-related gene (hERG) potassium channel (Q12809 whole entry, looked up): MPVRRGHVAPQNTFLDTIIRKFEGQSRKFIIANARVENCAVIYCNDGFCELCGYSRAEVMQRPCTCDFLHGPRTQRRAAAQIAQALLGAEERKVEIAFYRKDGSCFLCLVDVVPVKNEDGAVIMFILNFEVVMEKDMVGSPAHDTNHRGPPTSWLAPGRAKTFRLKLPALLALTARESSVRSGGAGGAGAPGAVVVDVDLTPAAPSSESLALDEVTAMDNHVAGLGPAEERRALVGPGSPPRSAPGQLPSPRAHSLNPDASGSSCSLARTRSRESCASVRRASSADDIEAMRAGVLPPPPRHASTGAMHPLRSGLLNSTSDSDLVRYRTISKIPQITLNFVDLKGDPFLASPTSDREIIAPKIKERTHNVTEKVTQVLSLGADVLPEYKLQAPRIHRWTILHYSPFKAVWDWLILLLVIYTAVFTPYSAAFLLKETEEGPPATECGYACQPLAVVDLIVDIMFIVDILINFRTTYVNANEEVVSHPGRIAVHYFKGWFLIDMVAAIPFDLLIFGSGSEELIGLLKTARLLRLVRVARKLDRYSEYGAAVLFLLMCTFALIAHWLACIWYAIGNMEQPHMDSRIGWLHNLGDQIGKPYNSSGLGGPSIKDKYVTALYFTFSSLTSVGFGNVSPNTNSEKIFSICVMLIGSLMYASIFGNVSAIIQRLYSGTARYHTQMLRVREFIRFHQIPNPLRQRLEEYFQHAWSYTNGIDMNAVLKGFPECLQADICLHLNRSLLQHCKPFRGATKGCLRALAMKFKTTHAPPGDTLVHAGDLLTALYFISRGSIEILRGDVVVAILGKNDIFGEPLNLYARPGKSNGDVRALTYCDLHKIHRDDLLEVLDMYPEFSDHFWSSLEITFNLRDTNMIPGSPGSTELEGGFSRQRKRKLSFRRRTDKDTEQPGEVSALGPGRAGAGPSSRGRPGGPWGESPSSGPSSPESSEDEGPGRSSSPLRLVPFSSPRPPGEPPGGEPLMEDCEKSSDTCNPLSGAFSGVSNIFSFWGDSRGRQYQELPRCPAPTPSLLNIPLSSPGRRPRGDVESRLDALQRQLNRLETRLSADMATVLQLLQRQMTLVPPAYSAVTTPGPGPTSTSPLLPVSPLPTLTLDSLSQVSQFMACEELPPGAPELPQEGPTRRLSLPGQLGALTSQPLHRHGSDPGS
row,Structure (SMILES),"hERG current change (%, negative = inhibition) at 1uM [%]"
1,COC(=O)c1sccc1N/N=C/c1cccc(OC)c1O,16.8
2,CC1CCCCN1S(=O)(=O)c1ccc(NC(=O)c2ccco2)cc1 (stereo not shown),5.1
3,CCc1nnc(NC(=O)CN2CCN(Cc3ccccc3C)CC2)s1,14.2
4,COc1ccc(OC(=O)N(C)C)c(CN(C)C)c1.Cl,6.42
5,Cc1cc(NC(=O)c2cccs2)n(-c2nc3ccccc3[nH]2)n1,11
6,Nc1ncnc2nc[nH]c12.O=S(=O)(O)O,20.3
7,Cc1cc(C(=O)COC(=O)c2cccc(O)c2)c(C)n1C1CC1,11.2
8,CC1(c2ccccc2)NC(=O)N(CC(=O)NCC2CCCO2)C1=O (stereo not shown),7.01
9,COC(=O)c1nc(-c2ccccc2)oc1N(C)C,8.02
10,COCCN(CCOC)S(=O)(=O)c1ccc(C(=O)Nc2nc3c(s2)CCc2ccccc2-3)cc1,14.8
11,Cc1ccc(-c2nc3ccccc3[nH]2)cc1N,2.65
12,CC(=O)Nc1ccc2oc(C)nc2c1,22.4
13,CC(=O)NC(=S)Nc1cccc2c(C)cc(C)nc12,-5.54
14,COc1cccc(Nc2nc3ccccc3nc2NS(=O)(=O)c2cccs2)c1,14.7
15,Cc1ccc(NC(=O)COC(=O)CCC(=O)c2ccc(Cl)cc2)cc1S(=O)(=O)N(C)C,6.21
16,CCOc1ccccc1COC(=O)c1cccc(-n2cnnn2)c1,-2.92
17,COc1ccc(/C=C/C(=O)Nc2cc(C)nn2-c2nc3ccccc3[nH]2)cc1,9.98
18,COc1ccc(-c2ccc3oc(-c4ccc(OC)cc4)c(C#CCO)c3c2)cc1,14
19,Cc1ccc(-c2cc(-c3ccccc3)nc(NN)n2)cc1,14.4
20,CCN1CCN(c2ccc(S(=O)(=O)N3CCCCC3)cc2NC(=O)COc2ccc(F)cc2Cl)CC1,-12.8

row,Structure (SMILES),"hERG current change (%, negative = inhibition) at 1uM [%]"
1,CCOC(=O)C1CCN(C(=O)c2ccccc2NC(=O)c2ccc(Br)cc2)CC1,-8.28
2,Cc1ccc(N2CCN(C(=O)NC3CCCCC3)CC2C)cc1 (stereo not shown),2.82
3,Nc1ccc2c(c1)C(=O)N(CCCC(=O)O)C2=O,1.78
4,O=C1CC2C(=O)NCCN2C(=NC(=O)c2ccccc2)N1 (stereo not shown),6.53
5,C/C(=N\NP(=S)(c1ccccc1)c1ccccc1)c1ccc(O)cc1O,14.2
6,O=c1ccc(-c2nc3ccccc3n2Cc2ccc(Cl)cc2)c[nH]1,-50.5
7,O=C(COC(=O)C1CCN(c2ccc(C(F)(F)F)cn2)CC1)Nc1ccc(Cl)cn1,6.59
8,CC(=O)c1cn(Cc2ccc(C#N)cc2)c2ccccc12,5.8
9,N#CC1(NC(=O)CSc2nnc(-c3ccccc3F)n2N)CCCCC1,13.6
10,NNC(=O)c1ccc(COc2ccc3ccccc3c2)cc1,-6.21
11,CN1C(=O)C(=Cc2cccnc2)C(=O)N(C)C1=O,20
12,CCOc1ccccc1C1C(C(N)=O)=C(C)Nc2nc(-c3ccc(OC)cc3)nn21 (stereo not shown),12.1
13,CCc1nc2n(n1)C(O)c1cc([N+](=O)[O-])ccc1S2 (stereo not shown),10.4
14,Cc1ccnc(NS(=O)(=O)c2ccc(NC(=O)c3ccc([N+](=O)[O-])s3)cc2)n1,6.9
15,COC(=O)c1sccc1NC(=O)CSc1ccccc1NS(=O)(=O)c1ccccc1Cl,12.3
16,COc1ccc2c(C(F)(F)F)cc(=O)oc2c1C,5.28
17,CN(C)c1ncnc2c1ncn2C1OC(CO)C(O)C1O (stereo not shown),11.2
18,CN(C)CCc1nc2ccccc2c(=O)n1-c1ccccc1.Cl,8.16
19,Cc1ccc2nc(C)c(C(=O)N/N=C/c3cccs3)cc2c1,3.53
20,COc1cccc(C(=O)Nc2ccccc2NC(=O)c2cccc(OC)c2)c1,12.5

row,Structure (SMILES),"hERG current change (%, negative = inhibition) at 1uM [%]"
1,COc1cc2nc(N(CCCN(C)C)C(=O)c3ccc(S(=O)(=O)N(C)C4CCCCC4)cc3)sc2cc1OC.Cl,-4.3
2,Cc1ccc(S(=O)(=O)NCCC(=O)NCC(c2cccs2)N(C)C)cc1C (stereo not shown),10.3
3,O=C(/C(=C(/[O-])c1ccccc1)[n+]1ccccc1)c1ccc([N+](=O)[O-])cc1,9.99
4,COC(=O)c1c(C(=O)OC)c2n(c1C)CCS2,5.12
5,C/C(Cn1cnc([N+](=O)[O-])n1)=N\NC(=O)c1ccccc1,18.4
6,O=C(NCc1cccnc1)c1cnn2ccccc12,12.6
7,O=C(CN1CCN(C(=O)c2ccco2)CC1)NCc1ccc(Cl)cc1,-35.1
8,COc1ccc(-n2nc(C(=O)N3CCC(C#N)CC3)c3c4ccccc4n(C)c3c2=O)cc1,-7.69
9,CCOc1ccc(C2c3[nH]c4ccccc4c3C[C@H]3C(=O)N(C4CC4)CC(=O)N23)cc1OC (stereo partly shown),5.86
10,O=C1COc2ccc(C(=O)COC(=O)c3ccco3)cc2N1,8.78
11,COc1cccc(=O)c2c(C)n(-c3ccc(C(=O)O)cc3)c(C)c12,8.3
12,Cc1cc(=O)oc2cc(OCCSCCN3CCCCC3)ccc12,10
13,CSc1nc2sc3c(c2c(=O)[nH]1)CCc1ccccc1-3,0.433
14,COc1ccc(CCNC(=O)C(C)Sc2ccc(C)cc2)cc1OC (stereo not shown),5.64
15,CC1CCCN(C2=C(Cl)C(=O)N(c3cccc(Cl)c3)C2=O)C1 (stereo not shown),4.58
16,COC(=O)c1ccc(NC(=O)CSCc2ccc(C)cc2)cc1,3.01
17,N#C/C(=C/c1ccc(N2CCOCC2)c([N+](=O)[O-])c1)C(N)=O,-4.14
18,Cc1ccc(C)c(NC(=O)c2nc(Cl)ccc2Cl)c1,13.1
